# The supplement of paper PMC8728848
# The list shows a part of the results.
# Columns and labels:
# Assay in all cases: glycan array binding signal (z-score within array); higher = stronger binding
# Conditions in all cases: glycan notation: IUPAC condensed, linker removed
# [1] = target: Gal(a1-3)Gal
# Procedure, shortened: (§1)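 Glycan array data were curated from 3228 arrays in the Consortium for Functional Glycomics database and kept only where the protein sequence was available. Glycan names were converted to IUPAC-condensed notation, and columns mapping to the same glycan were averaged. The binding signal is a within-array Z-score, averaged across arrays of the same protein sequence at different concentrations or buffers and across linkers. Negative Z-scores can be read as non-binding.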
# [2] = target: Gal(a1-3)Gal(b1-3)GlcNAc
# Procedure, shortened: as §1
# [3] = target: Gal(a1-3)Gal(b1-3)GlcNAc(b1-2)Man(a1-3)[Gal(a1-3)Gal(b1-3)GlcNAc(b1-2)Man(a1-6)]Man(b1-4)GlcNAc(b1-4)GlcNAc
# Procedure, shortened: as §1
# [4] = target: Gal(a1-3)Gal(b1-3)GlcNAc(b1-3)GalNAc
# Procedure, shortened: as §1
# [5] = target: Gal(a1-3)Gal(b1-3)[Fuc(a1-4)]GlcNAc(b1-2)Man(a1-3)[Gal(a1-3)Gal(b1-3)[Fuc(a1-4)]GlcNAc(b1-2)Man(a1-6)]Man(b1-4)GlcNAc(b1-4)GlcNAc
# Procedure, shortened: as §1
# [6] = target: Gal(a1-3)Gal(b1-4)Glc
# Procedure, shortened: as §1
# [7] = target: Gal(a1-3)Gal(b1-4)GlcNAc
# Procedure, shortened: as §1
# [8] = target: Gal(a1-3)Gal(b1-4)GlcNAc(b1-3)GalNAc
# Procedure, shortened: as §1
# [9] = target: Gal(a1-3)Gal(b1-4)[Fuc(a1-3)]GlcNAc
# Procedure, shortened: as §1
# [10] = target: Gal(a1-3)Gal(b1-4)[Fuc(a1-3)]GlcNAc(b1-2)Man(a1-3)[Gal(a1-3)Gal(b1-4)[Fuc(a1-3)]GlcNAc(b1-2)Man(a1-6)]Man(b1-4)GlcNAc(b1-4)GlcNAc
# Procedure, shortened: as §1
# [11] = target: Gal(a1-3)GalNAc
# Procedure, shortened: as §1
# [12] = target: Gal(a1-3)[Gal(a1-4)]Gal(b1-4)GlcNAc
# Procedure, shortened: as §1
# [13] = target: Gal(a1-4)Gal(b1-3)GlcNAc(b1-2)Man(a1-3)[Gal(a1-4)Gal(b1-3)GlcNAc(b1-2)Man(a1-6)]Man(b1-4)GlcNAc(b1-4)GlcNAc
# Procedure, shortened: as §1
# [14] = target: Gal(a1-4)Gal(b1-4)Glc
# Procedure, shortened: as §1
# [15] = target: Gal(a1-4)Gal(b1-4)GlcNAc
# Procedure, shortened: as §1
# [16] = target: Gal(a1-4)Gal(b1-4)GlcNAc(b1-2)Man(a1-3)[Gal(a1-4)Gal(b1-4)GlcNAc(b1-2)Man(a1-6)]Man(b1-4)GlcNAc(b1-4)GlcNAc
# Procedure, shortened: as §1
# [17] = target: Gal(a1-4)Gal(b1-4)GlcNAc(b1-3)Gal(b1-4)Glc
# Procedure, shortened: as §1
# [18] = target: Gal(a1-4)GlcNAc
# Procedure, shortened: as §1
# [19] = target: Gal(a1-6)Glc
# Procedure, shortened: as §1
# [20] = target: Gal(b1-2)Gal
# Procedure, shortened: as §1
# [21] = target: Gal(b1-3)Gal
# Procedure, shortened: as §1
# [22] = target: Gal(b1-3)Gal(b1-4)GlcNAc
# Procedure, shortened: as §1
# [23] = target: Gal(b1-3)Gal(b1-4)GlcNAc(b1-2)Man(a1-3)[Gal(b1-3)Gal(b1-4)GlcNAc(b1-2)Man(a1-6)]Man(b1-4)GlcNAc(b1-4)GlcNAc
# Procedure, shortened: as §1
# [24] = target: Gal(b1-3)GalNAc
# Procedure, shortened: as §1
# [25] = target: Gal(b1-3)GalNAc(a1-3)[Fuc(a1-2)]Gal(b1-4)Glc
# Procedure, shortened: as §1
# [26] = target: Gal(b1-3)GalNAc(a1-3)[Fuc(a1-2)]Gal(b1-4)GlcNAc
# Procedure, shortened: as §1
# [27] = target: Gal(b1-3)GalNAc(b1-3)Gal(a1-4)Gal(b1-4)Glc
# Procedure, shortened: as §1
# [28] = target: Gal(b1-3)GalNAc(b1-4)Gal(b1-4)Glc
# Procedure, shortened: as §1
# [29] = target: Gal(b1-3)GalNAc(b1-4)[Neu5Ac(a2-3)]Gal(b1-4)Glc
# Procedure, shortened: as §1
# [30] = target: Gal(b1-3)GlcNAc
# Procedure, shortened: as §1
# [31] = target: Gal(b1-3)GlcNAc(a1-6)Gal(b1-4)GlcNAc
# Procedure, shortened: as §1
# [32] = target: Gal(b1-3)GlcNAc(b1-2)Man(a1-3)[Gal(b1-3)GlcNAc(b1-2)Man(a1-6)]Man(b1-4)GlcNAc(b1-4)GlcNAc
# Procedure, shortened: as §1
# [33] = target: Gal(b1-3)GlcNAc(b1-2)Man(a1-3)[Gal(b1-3)GlcNAc(b1-2)Man(a1-6)]Man(b1-4)GlcNAc(b1-4)[Fuc(a1-6)]GlcNAc
# Procedure, shortened: as §1
# [34] = target: Gal(b1-3)GlcNAc(b1-2)[Gal(b1-3)GlcNAc(b1-6)]Man(a1-6)[Gal(b1-3)GlcNAc(b1-2)Man(a1-3)]Man(b1-4)GlcNAc(b1-4)GlcNAc
# Procedure, shortened: as §1
# [35] = target: Gal(b1-3)GlcNAc(b1-3)Gal(b1-3)GlcNAc
# Procedure, shortened: as §1
# [36] = target: Gal(b1-3)GlcNAc(b1-3)Gal(b1-4)Glc
# Procedure, shortened: as §1
# [37] = target: Gal(b1-3)GlcNAc(b1-3)Gal(b1-4)GlcNAc
# Procedure, shortened: as §1
# [38] = target: Gal(b1-3)GlcNAc(b1-3)Gal(b1-4)GlcNAc(b1-6)[Gal(b1-3)GlcNAc(b1-3)]Gal(b1-4)Glc
# Procedure, shortened: as §1
# [39] = target: Gal(b1-3)GlcNAc(b1-3)Gal(b1-4)[Fuc(a1-3)]GlcNAc(b1-6)[Gal(b1-3)GlcNAc(b1-3)]Gal(b1-4)Glc
# Procedure, shortened: as §1
# [40] = target: Gal(b1-3)GlcNAc(b1-3)GalNAc
# Procedure, shortened: as §1
# [41] = target: Gal(b1-3)GlcNAc(b1-6)Gal(b1-4)GlcNAc
# Procedure, shortened: as §1
# [42] = target: Gal(b1-3)[Fuc(a1-4)]GlcNAc
# Procedure, shortened: as §1
# [43] = target: Gal(b1-3)[Fuc(a1-4)]GlcNAc(b1-2)Man(a1-3)[Gal(b1-3)[Fuc(a1-4)]GlcNAc(b1-2)Man(a1-6)]Man(b1-4)GlcNAc(b1-4)GlcNAc
# Procedure, shortened: as §1
# [44] = target: Gal(b1-3)[Fuc(a1-4)]GlcNAc(b1-2)Man(a1-3)[Gal(b1-3)[Fuc(a1-4)]GlcNAc(b1-2)Man(a1-6)]Man(b1-4)GlcNAc(b1-4)[Fuc(a1-6)]GlcNAc
# Procedure, shortened: as §1
# [45] = target: Gal(b1-3)[Fuc(a1-4)]GlcNAc(b1-3)Gal(b1-3)[Fuc(a1-4)]GlcNAc
# Procedure, shortened: as §1
binder,measurement,setting,value
"RS2L (Ralstonia solanacearum), B5RXL5_RALSO (protein) MAQQGVFTLPANTSFGVTAFANAANTQTIQVLVDNVVKATFTGSGTSDKLLGSQVLNSGSGAIKIQVSVNGKPSDLVSNQTILANKLNFAMVGSEDGTDNDYNDGIAVLNWPLG",glycan array binding signal (z-score),[1],-0.251
same,glycan array binding signal (z-score),[2],-0.251
same,glycan array binding signal (z-score),[3],-0.193
same,glycan array binding signal (z-score),[4],-0.245
same,glycan array binding signal (z-score),[5],0.051
same,glycan array binding signal (z-score),[6],-0.243
same,glycan array binding signal (z-score),[7],-0.246
same,glycan array binding signal (z-score),[8],-0.244
same,glycan array binding signal (z-score),[9],-0.238
same,glycan array binding signal (z-score),[10],-0.248
same,glycan array binding signal (z-score),[11],-0.246
same,glycan array binding signal (z-score),[12],-0.247
same,glycan array binding signal (z-score),[13],0.267
same,glycan array binding signal (z-score),[14],-0.244
same,glycan array binding signal (z-score),[15],-0.244
same,glycan array binding signal (z-score),[16],-0.239
same,glycan array binding signal (z-score),[17],-0.246
same,glycan array binding signal (z-score),[18],-0.238
same,glycan array binding signal (z-score),[19],-0.251
same,glycan array binding signal (z-score),[20],-0.247
same,glycan array binding signal (z-score),[21],-0.25
same,glycan array binding signal (z-score),[22],-0.247
same,glycan array binding signal (z-score),[23],-0.227
same,glycan array binding signal (z-score),[24],-0.245
same,glycan array binding signal (z-score),[25],-0.245
same,glycan array binding signal (z-score),[26],-0.241
same,glycan array binding signal (z-score),[27],-0.248
same,glycan array binding signal (z-score),[28],-0.244
same,glycan array binding signal (z-score),[29],-0.238
same,glycan array binding signal (z-score),[30],-0.242
same,glycan array binding signal (z-score),[31],-0.242
same,glycan array binding signal (z-score),[32],0.345
same,glycan array binding signal (z-score),[33],-0.142
same,glycan array binding signal (z-score),[34],0.497
same,glycan array binding signal (z-score),[35],-0.239
same,glycan array binding signal (z-score),[36],-0.23
same,glycan array binding signal (z-score),[37],-0.24
same,glycan array binding signal (z-score),[38],-0.246
same,glycan array binding signal (z-score),[39],-0.239
same,glycan array binding signal (z-score),[40],-0.241
same,glycan array binding signal (z-score),[41],-0.25
same,glycan array binding signal (z-score),[42],-0.07
same,glycan array binding signal (z-score),[43],-0.247
same,glycan array binding signal (z-score),[44],1.2
same,glycan array binding signal (z-score),[45],0.028
